{"source": "paper PMC5740062", "about": "“CRTC1 mediates preferential transcription at neuronal activity-regulated CRE/TATA promoters” (Scientific Reports, 2017)", "biological_target": "T1, CREB-regulated transcription coactivator-1 (CRTC1) (mouse (endogenous in primary cortical …, UniProt Q68ED7 1-630))", "T1 construct": "also called endogenous CRTC1; source: endogenous, mouse primary cortical neurons (12 DIV), formaldehyde-crosslinked, in lysate", "T1 sequence (looked up)": "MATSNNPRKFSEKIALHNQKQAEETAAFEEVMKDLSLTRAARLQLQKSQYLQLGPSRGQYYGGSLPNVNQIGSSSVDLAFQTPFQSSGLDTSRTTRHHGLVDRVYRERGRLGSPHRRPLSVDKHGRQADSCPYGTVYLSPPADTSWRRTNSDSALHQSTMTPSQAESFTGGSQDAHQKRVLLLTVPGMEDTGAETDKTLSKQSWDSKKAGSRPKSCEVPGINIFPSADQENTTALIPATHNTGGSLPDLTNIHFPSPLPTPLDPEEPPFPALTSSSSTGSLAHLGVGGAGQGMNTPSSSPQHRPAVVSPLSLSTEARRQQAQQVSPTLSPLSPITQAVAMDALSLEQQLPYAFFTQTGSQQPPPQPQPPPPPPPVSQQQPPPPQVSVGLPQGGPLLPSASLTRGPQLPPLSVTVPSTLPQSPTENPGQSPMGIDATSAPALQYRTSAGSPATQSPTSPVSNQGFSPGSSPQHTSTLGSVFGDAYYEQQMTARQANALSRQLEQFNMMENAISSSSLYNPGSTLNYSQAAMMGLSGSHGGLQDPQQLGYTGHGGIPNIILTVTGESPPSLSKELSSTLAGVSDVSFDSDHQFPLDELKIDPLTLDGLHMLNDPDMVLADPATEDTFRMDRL", "experiment": "co-IP; endogenous proteins; cortical neurons (12 DIV) treated with vehicle or FSK/KCl, crosslinked with 1% formaldehyde, lysed by sonication (50 mM Tris-HCl pH 8, 1% Triton X-100, 100 mM NaCl, 1 mM MgCl2); 2 mg protein immunoprecipitated overnight at 4 °C with anti-CREB or anti-CRTC1, Dynabeads protein G; blots of CRTC1 and pCREB; percent normalised to the maximum immunoprecipitation with the specific antibody in …", "details": "partners not purified", "data": [{"binder": "cAMP-responsive element-binding protein (CREB) (natural protein, phosphoserine at 133 (blotted as pCREB after FSK/KCl), Precipitated with an anti-CREB antibody and detected on blots as phosphorylated CREB (Ser133); also called pCREB; endogenous CREB; source: endogenous, mouse primary cortical neurons (12 DIV), formaldehyde-crosslinked, in lysate) not shown", "values": [{"measurement": "percent of pCREB co-immunoprecipitated with anti-CRTC1 (FSK/KCl), relative to its immunoprecipitation with anti-CREB", "value": "~50", "unit": "%"}]}]}
